# PubChem BioAssay AID360 (National Center for Advancing Translational Sciences (NCATS), 2006)
# The whole screen tested about 48,000 compounds, of which about 550 (1.1%) were called active. Another 4% or so got no clear call; they are omitted. Cut-off read from the data, not from the text of the source: active = potency below about 15 µM; inconclusive = mostly about 16 µM to 33 µM; inactive = weaker than that. This is one part of the list.
# Target: Lysosomal acid glucosylceramidase (Homo sapiens) (UniProt P04062)
# Assay: Glucocerebrosidase;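 note: the screen sought inhibitors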
# Settings: purified enzyme, resorufin glucoside fluorescence (screen aimed at inhibitors), 20 min; series mostly up to 77 µM
# Summary of the method: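 Wild-type enzyme at 0.2 nM final in 50mM citric acid/KH2PO4, 10mM sodium taurocholate, 0.01% tween-20, pH 5.9, with resorufin beta-D-glucopyranoside at 30 uM final. Compounds titrated, 20 min at RT, red fluorescence read; AC50 from titration.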
# Potency is the fitted concentration of half-maximal effect.
# Sequence of UniProt P04062 (P04062 whole entry, looked up): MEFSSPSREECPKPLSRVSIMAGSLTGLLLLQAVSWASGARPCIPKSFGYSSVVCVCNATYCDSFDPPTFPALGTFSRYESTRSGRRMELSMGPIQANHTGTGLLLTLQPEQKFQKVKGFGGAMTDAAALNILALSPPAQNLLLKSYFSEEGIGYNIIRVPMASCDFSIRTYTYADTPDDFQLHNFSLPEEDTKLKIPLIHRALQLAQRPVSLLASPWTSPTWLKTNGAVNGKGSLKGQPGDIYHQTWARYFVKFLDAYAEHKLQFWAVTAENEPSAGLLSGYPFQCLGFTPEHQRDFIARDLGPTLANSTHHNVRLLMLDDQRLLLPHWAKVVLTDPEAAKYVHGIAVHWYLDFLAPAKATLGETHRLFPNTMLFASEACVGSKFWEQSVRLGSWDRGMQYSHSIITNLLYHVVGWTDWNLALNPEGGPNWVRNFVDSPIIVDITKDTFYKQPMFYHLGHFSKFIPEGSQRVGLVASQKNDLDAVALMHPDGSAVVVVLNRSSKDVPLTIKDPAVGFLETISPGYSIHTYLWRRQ
row,Compound,Potency
1,COC(=O)c1ccccc1NC(=O)C1CC(c2ccc(F)cc2)=NO1 (configuration not stated),inactive: > 76.9 µM
2,CCOc1ccccc1Nc1ccc(C(=O)O)cc1NC(C)=O,inactive: > 76.9 µM
3,CCCCN(C)Cc1c(C)[nH]c2ccc(Cl)cc2c1=O,inactive: > 76.9 µM
4,Cc1c(NC(=O)c2cc(=O)[nH]c(=O)[nH]2)c(=O)n(-c2ccccc2)n1C,inactive: > 76.9 µM
5,O=C(CSc1cccc2cccnc12)NCc1ccco1,inactive: > 76.9 µM
6,CCOC(=O)C(C)Oc1ccccc1C1NC(=O)NC(C)=C1C(=O)Nc1ccc(C)c(C)c1 (configuration not stated),inactive: > 76.9 µM
7,CCC(=O)Nc1ccccc1C(=O)OCC(=O)Nc1ccc(S(N)(=O)=O)cc1,inactive: > 76.9 µM
8,CCCn1c(C)cc(C(=O)CN2C(=O)c3ccccc3C2=O)c1C,inactive: > 76.9 µM
9,Cc1c(C(=O)N2CCN(c3ccccn3)CC2)oc2ccccc12,inactive
10,CCOC(=O)C1=C(C)N(C)C(=O)NC1c1ccc(C)s1 (configuration not stated),inactive: > 76.9 µM
11,Cc1ccccc1C(=O)c1cccn1CC(=O)NCc1ccco1,inactive: > 76.9 µM
12,CC(C)CCN1CC(C(=O)NC(C)C)CC1=O (configuration not stated),inactive: > 76.9 µM
13,O=S(=O)(c1cccc(-c2nnco2)c1)N1CCCC1,inactive: > 76.9 µM
14,COc1cccc(C2c3c(oc4ccccc4c3=O)C(=O)N2CCCN2CCOCC2)c1OC (configuration not stated),inactive: > 76.9 µM
15,Cc1ccc(C(=O)O)cc1S(=O)(=O)N1CCSCC1,inactive: > 76.9 µM
16,CCCN1CCC(NC(=O)Nc2ccc(F)cc2F)CC1,inactive: > 76.9 µM
17,O=C(O)C1C2C=CC(C2)C1C(=O)NCCCN1CCOCC1 (configuration not stated),inactive: > 76.9 µM
18,CCCN(Cc1ccccc1)C(=O)Nc1ccc2c(c1)nnn2C,inactive: > 76.9 µM
19,COc1cc(OC)cc(C(=O)NC2CCSC2=O)c1 (configuration not stated),inactive: > 76.9 µM
20,O=C(NC(=O)c1ccc(Cl)cc1)Nc1cc(N2CCCCC2)ncn1,inactive: > 76.9 µM
21,COCc1nnc(SCC(=O)NCc2ccccc2)n1-c1ccccc1,inactive: > 76.9 µM
22,CCOC(=O)c1nnn(-c2nonc2-n2cccc2)c1C,inactive: > 76.9 µM
23,O=C(CSc1ncnc2c1oc1ccccc12)NCc1ccco1,inactive: > 76.9 µM

row,Compound,Potency
1,CCOC(=O)c1c(C)n(C(=O)c2ccco2)c(=O)n1C(=O)c1ccco1,inactive: > 76.9 µM
2,COC(=O)c1c(NC(=O)CN2CCN(C(=O)c3ccco3)CC2)c2c(C)cccc2n1C,inactive: > 76.9 µM
3,CCOC(=O)CCCCC(=O)c1[nH]c(=O)[nH]c1CN1CCOCC1,inactive: > 76.9 µM
4,CCn1c(=O)cc(OCC(=O)NCc2ccco2)c2ccccc21,inactive: > 76.9 µM
5,Cc1c(C(=O)N2CCOCC2)oc2c1C(=O)CC(C)(C)C2,inactive: > 76.9 µM
6,CN(c1cccc(NC(=O)COc2ccccc2)c1)S(C)(=O)=O,inactive: > 76.9 µM
7,O=C(O)c1cccc(N2C(=O)CSC2c2c(F)cccc2Cl)c1 (configuration not stated),inactive: > 76.9 µM
8,c1cc(CNc2ccc3c(c2)OCCO3)ccn1,inactive: > 76.9 µM
9,CCNC(=O)COC(=O)COc1ccc(Cl)cc1C,inactive: > 76.9 µM
10,Cc1ccc2c(c1)c1ncnc(N3CCN(c4ccccc4)CC3)c1n2C,inactive: > 76.9 µM
11,CCOc1cccc(NC(=O)C2CC(=O)N(C)C2)c1 (configuration not stated),inactive: > 76.9 µM
12,CCOC(=O)c1c(NC(=O)Cn2nnc3ccccc32)sc2c1CCC(C)C2 (configuration not stated),inactive: > 76.9 µM
13,C=CCn1c2ccccc2c2nnc(SCc3ccc4nonc4c3)nc21,inactive: > 76.9 µM
14,O=C(NCc1ccccc1)c1cc(S(=O)(=O)N2CCOCC2)ccc1F,inactive: > 76.9 µM
15,COc1ccccc1-c1cc(C(=O)Nc2ccccc2SC)no1,inactive: > 76.9 µM
16,CC1(C)NC(=O)N(CC(O)CN(Cc2ccccc2)Cc2ccccc2)C1=O (configuration not stated),inactive: > 76.9 µM
17,CCOC(=O)C1CCN(CC(=O)Nc2c(C(=O)OC)n(C)c3cccc(C)c23)CC1,inactive: > 76.9 µM
18,CCOc1ccc(-n2c(COc3ccccc3)nnc2SCC(N)=O)cc1,inactive: > 76.9 µM
19,Cn1c(CCCNC(=O)c2ccccc2)nc2ccccc21,inactive: > 76.9 µM
20,CC(C)N(Cc1cc2ccccc2[nH]c1=O)C(=O)C(C)(C)C,inactive: > 76.9 µM
21,COC(=O)Cn1ncn2c(cc3oc(C)cc32)c1=O,inactive: > 76.9 µM
22,Cc1ccc(N(CN2CCCC2=O)C(=O)c2ccc(C)c(C)c2)cc1,inactive: > 76.9 µM
23,O=C(Nc1ccc(S(=O)(=O)NCc2ccccc2)cc1)Nc1ccc2c(c1)OCO2,inactive: > 76.9 µM

row,Compound,Potency
1,O=C(Nc1scc(-c2ccccc2)c1C(=O)O)c1ccco1,inactive: > 76.9 µM
2,Cc1nn(C/C(C#N)=N\O)c(C)[n+]1N,inactive: > 76.9 µM
3,CC(C)Oc1ccc(C(=O)N(CN2CCCC2=O)c2ccc(F)cc2)cc1,inactive: > 76.9 µM
4,CC(C)C(OC(=O)c1cccs1)C(=O)NCc1cccs1 (configuration not stated),inactive: > 76.9 µM
5,O=C(Nc1ccccc1)c1cnc[nH]1,inactive: > 76.9 µM
6,COc1ccc(-c2cc(C(=O)NCc3cccnc3)no2)cc1,inactive: > 76.9 µM
7,CCOc1ccc(NCc2nnc(SCC(=O)Nc3cc(C)on3)n2-c2ccc(OC)cc2)cc1,inactive: > 76.9 µM
8,CC(C)(C)C1CCC(=O)C(C2(O)C(=O)Nc3ccccc32)C1 (configuration not stated),inactive: > 76.9 µM
9,O=C(COc1ccc(F)cc1Br)N1CCc2ccccc21,inactive: > 76.9 µM
10,O=C(c1cc(-c2cccs2)on1)N1CCOCC1,inactive: > 76.9 µM
11,O=C(c1csc(Nc2ccccc2Cl)n1)N1CCCC1,inactive: > 76.9 µM
12,CCN(CC)C(=O)CSC1=Nc2ccccc2C2=NC(Cc3c[nH]c4ccccc34)C(=O)N12 (configuration not stated),inactive: > 76.9 µM
13,CC(NCCO)C(=O)C12CC3CC(CC(C3)C1)C2 (configuration not stated),inactive: > 76.9 µM
14,O=C(c1cc(Cl)cc(Cl)c1)N1CCOCC1,inactive: > 76.9 µM
15,COc1ccc(NC(=O)c2ccco2)cc1NC(=O)c1c(F)c(F)c(OC)c(F)c1F,inactive: > 76.9 µM
16,CC(=O)NC(C)c1nc2ccccc2n1Cc1ccccc1F (configuration not stated),inactive: > 76.9 µM
17,COc1ccc(Cl)cc1-n1c(N)c(C(N)=O)sc1=S,inactive: > 76.9 µM
18,CCOC(=O)c1cnc(SCC(=O)Nc2cc(C(F)(F)F)ccc2N2CCOCC2)nc1N,inactive: > 76.9 µM
19,Cc1ccc(NC(=O)NC2(C(=O)NCc3ccco3)CCCCC2)cc1,inactive: > 76.9 µM
20,COc1cc(OC)cc(C(=O)NCC(=O)OC2CCOC2=O)c1 (configuration not stated),inactive: > 76.9 µM
21,CCCc1cc(=O)[nH]c(SCc2ccccc2)n1,inactive: > 76.9 µM
22,COc1cc(C2NC(=O)NC(C)=C2C(=O)OC(C)(C)C)ccc1OCC(=O)O (configuration not stated),inactive: > 76.9 µM
23,Cc1cc(=O)n2c(-c3ccccc3C)n[nH]c2n1,inactive: > 76.9 µM

row,Compound,Potency
1,CCOC(=O)N1CCN(S(=O)(=O)c2ccc(OCC(=O)OC)c(C)c2)CC1,inactive: > 76.9 µM
2,CCCn1cc(S(=O)(=O)CC(=O)Nc2ccc(OCC)cc2)c2ccccc21,inactive: > 76.9 µM
3,COc1ccc(-c2cnc(N)n2CC2CCCO2)cc1 (configuration not stated),inactive
4,CCOc1cc2[nH]c(=O)n(CCCC(=O)NCc3ccco3)c(=O)c2cc1OCC,inactive: > 76.9 µM
5,CN1CCCC(OC(=O)c2cc(Br)ccc2Cl)C1 (configuration not stated),inactive: > 76.9 µM
6,Cc1nc2c(C(=O)NCc3ccc(F)cc3)c[nH]n2c(=O)c1Cl,inactive: > 76.9 µM
7,Cc1cc(C)n(C(=O)COc2c(C)cccc2C)n1,inactive: > 76.9 µM
8,Cc1cccc(Nc2nn3c(=O)c4ccccc4nc3s2)c1,inactive: > 76.9 µM
9,COc1ccc(CCn2c(-c3ccco3)nc3oc4ccccc4c(=O)c3c2=O)cc1,inactive: > 76.9 µM
10,CCC(=O)N1CCc2cc(S(=O)(=O)CCC(=O)Nc3ccc(CC)cc3)ccc21,inactive: > 76.9 µM
11,CCCS(=O)(=O)N1CCCC(C(=O)NCCN2CCOCC2)C1 (configuration not stated),inactive: > 76.9 µM
12,COc1ccc2cc(C3(C)NC(=O)NC3=O)ccc2c1 (configuration not stated),inactive: > 76.9 µM
13,COc1ccc(NC(=O)CN2C(=O)C(C)Oc3ccccc32)c(OC)c1 (configuration not stated),inactive: > 76.9 µM
14,CC1CN(c2cc3nccnc3cc2F)CC(C)O1 (configuration not stated),inactive: > 76.9 µM
15,CC1(C)C(=O)NCCN1C(=O)CSc1nccc(-c2ccc(Br)cc2)n1,inactive: > 76.9 µM
16,CCC(=O)N1CCN(c2ccccc2NC(=O)COc2cc(C)ccc2C(C)C)CC1,inactive: > 76.9 µM
17,O=C(Nc1ccc(-c2noc(CCc3ccccc3)n2)cc1)c1cccnc1,active: 14.1 µM
18,COc1ccc(Cl)cc1NC(=O)CSc1ncnc2c1oc1ccccc12,inactive: > 76.9 µM
19,Cc1cc2c(c(=O)o1)C1(C(=O)N(CC(=O)O)c3ccccc31)C(C#N)=C(N)O2 (configuration not stated),inactive: > 76.9 µM
20,COc1cc(C(=O)NCc2ccco2)cc(OC)c1OC,inactive: > 76.9 µM
21,O=C(c1cccc(F)c1)N1CCN(S(=O)(=O)c2ccc(C(F)(F)F)cc2)CC1,inactive: > 76.9 µM
22,CCOC(=O)N1CCN(S(=O)(=O)c2ccc(C)c(C)c2C)CC1,inactive: > 76.9 µM
23,O=C(c1ccc(CNS(=O)(=O)c2cccc(C(F)(F)F)c2)cc1)N1CCOCC1,inactive: > 76.9 µM
